Data reported in PubChem BioAssay AID624417 (National Center for Advancing Translational Sciences (NCATS), 2012).
Hit rate of the full screen: of about 410,000 compounds, about 6,400 (1.6%) were called active. Inconclusive means that the source gave no clear call. Such entries were picked first, then a sample of the others. The call rests on the fitted dose curve; in most records, active means well fitted inhibition curve with a large enough effect; inconclusive means small, poorly fitted or top-dose-only effect; inactive means no such curve, though single readings can be large or run the other way. Potencies of inconclusive entries are left out as doubtful fits.

Molecular target: Glucagon-like peptide 1 receptor (Homo sapiens) (UniProt P43220)
Experiment: qHTS of GLP-1 Receptor Inverse Agonists (Inhibition Mode); further: nearly all actives have a fitted effect of over 55% in size
Conditions: HEK293 GLP-1R CRE-luciferase, luminescence, 24 h, GLP-1R form is constitutively active; series mostly up to 38.3 µM
Method in brief: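 Inverse agonists were sought by their lowering of basal cAMP reporter luciferase output in HEK293 cells stably carrying constitutively active human GLP-1R, after 24 h compound treatment.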
Potency means the concentration at half of the fitted maximal effect; tags describe the fitted curve by direction and shape.

UniProt P43220, sequence (P43220 whole entry, looked up): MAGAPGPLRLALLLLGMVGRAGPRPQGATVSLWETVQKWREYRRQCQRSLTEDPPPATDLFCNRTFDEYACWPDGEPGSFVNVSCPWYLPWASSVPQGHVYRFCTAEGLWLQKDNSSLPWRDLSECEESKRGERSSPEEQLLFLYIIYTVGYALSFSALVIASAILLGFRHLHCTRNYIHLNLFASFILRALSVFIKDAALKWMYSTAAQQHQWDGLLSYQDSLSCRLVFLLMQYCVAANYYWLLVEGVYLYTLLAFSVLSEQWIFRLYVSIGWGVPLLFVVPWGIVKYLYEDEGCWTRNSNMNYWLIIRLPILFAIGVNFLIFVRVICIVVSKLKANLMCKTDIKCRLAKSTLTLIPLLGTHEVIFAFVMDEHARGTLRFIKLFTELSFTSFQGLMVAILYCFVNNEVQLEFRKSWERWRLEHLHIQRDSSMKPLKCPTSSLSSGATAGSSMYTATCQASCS

Structure (SMILES) | Potency
Cc1ccc(C)c(N2CCN(CCCc3ccccc3)CC2)c1 | inconclusive [inhibitor, partial curve, poor fit]
C/C=N\NC(=O)COc1cc(C)ccc1C | inactive
COC(=O)c1c(-c2c(Cl)cccc2Cl)noc1NC(=O)NN1CCCCC1 | inconclusive [inhibitor, single point]
CCN(CC)CCCC(C)Nc1nccc2cccc(Cl)c12 (centres undefined) | inconclusive [inhibitor, partial curve, poor fit]
COc1ccc(C(=O)/C=C2/C(=O)Nc3ccccc32)cc1 | inconclusive [inhibitor, partial curve, poor fit]
CC(OC(=O)CCc1cc(C(C)(C)C)c(O)c(C(C)(C)C)c1)C(=O)NC1CC1 (centres undefined) | inconclusive [inhibitor, single point]
CCOc1cc(C(=O)N2CCC(CC3CC(c4cccc(Br)c4)=NO3)(C(=O)NCC3CCCCC3)CC2)cc(OCC)c1OCC (centres undefined) | inconclusive [inhibitor, partial curve, poor fit]
COc1ccc(OCC(O)CNC(=O)Nc2ccc(C(C)(C)C)cc2)cc1 (centres undefined) | inconclusive [inhibitor, partial curve]
COc1ccccc1C(=O)NC(=S)Nc1cccnc1Cl | inconclusive [inhibitor, single point]
Cn1cc(S(=O)(=O)c2ccccc2)c(=O)c2cc(F)c(N3CCN(c4ccc(F)cc4)CC3)cc21 | inactive
Cc1ccc(-c2nnc(Nc3ccc(Cl)cc3)c3ccccc23)cc1S(=O)(=O)N1CCOCC1 | inconclusive [inhibitor, full curve]
CN(Cc1ccccc1)C(=S)Nc1ccc2nc3n(c(=O)c2c1)CCCCC3 | inconclusive [inhibitor, full curve]
Cc1ccc(OCC(=O)Nc2cc(S(=O)(=O)N3CCCCC3)ccc2N2CCN(C)CC2)c(C)c1 | inconclusive [inhibitor, single point]
Cc1ccc(NC(=S)NNC(C)(C)C)cc1 | inconclusive [inhibitor, full curve, poor fit]
CC(C)(C)C(=O)NC(=S)NNC(=O)C(c1ccccc1)c1ccccc1 | inconclusive [inhibitor, single point]
CCOC(=O)c1c(C)oc2c1c(CN1CCN(C(=O)OCC)CC1)c(O)c1ccccc12 | inconclusive [inhibitor, partial curve, poor fit]
COc1ccccc1N1CCN(c2nc3ccc(C)cc3nc2-n2nc(C)cc2C)CC1 | inconclusive [inhibitor, partial curve, poor fit]
CN(C(=O)c1ccc2c(c1)N(Cc1ccccc1F)C(=O)c1ccccc1S2)C1CCCCC1 | inconclusive [inhibitor, single point]
COc1cccc(CC2(CO)CCCN(Cc3cn[nH]c3-c3cc(C)ccc3C)C2)c1 (centres undefined) | inconclusive [inhibitor, partial curve, poor fit]
Cc1cccc(NCc2nnc3n2CCCCC3)c1C | inactive

Structure (SMILES) | Potency
CCOC(=O)c1c(C)n(-c2ccccc2)c2ccc(OC(=O)c3ccc(OCC)c(OCC)c3)cc12 | inconclusive [inhibitor, single point]
O=C(c1cc(-c2ccccc2)nc2ccccc12)N1CCN(c2ccccn2)CC1 | inconclusive [inhibitor, single point]
CCOc1ccccc1CN1CCC(Oc2ccc(C(=O)NCc3ccccn3)cc2)CC1 | inconclusive [inhibitor, partial curve, poor fit]
COc1ccc2oc(C(=O)Nc3nc(-c4ccccn4)cs3)c(C)c2c1 | inactive
COc1ccccc1NC(=O)CCn1nc(-c2ccccc2)c2ccccc2c1=O | inconclusive [inhibitor, partial curve, poor fit]
CCOC(=O)C1(Cc2cccc(F)c2)CCN(Cc2cnn(CC)c2C)CC1 | inconclusive [inhibitor, single point]
Cc1ccc(S(=O)(=O)Nc2cccc(C(=O)N3CCN(c4ccccc4O)CC3)c2)cc1F | inconclusive [inhibitor, single point]
COc1ccccc1C(CNC(=O)CNC(=O)c1cccc(Cl)c1)N1CCCC1 (centres undefined) | inactive
COC(=O)NNC(=O)COc1cc(C)c(Br)cc1C(C)C | inconclusive [inhibitor, single point]
COc1ccc(OC)c(N(CC(=O)NCCSCc2ccco2)S(=O)(=O)c2ccccc2)c1 | inactive
CC(C)Oc1ccc(CNC(=S)N/N=C/c2cccnc2)cc1 | inconclusive [inhibitor, single point]
N#C/C(=C\c1ccc(Sc2nc3ccccc3[nH]2)o1)c1ccccc1 | inconclusive [inhibitor, partial curve, poor fit]
CCC(C(=O)Oc1c(C(C)C)cccc1C(C)C)c1ccccc1 (centres undefined) | inconclusive [inhibitor, single point]
Cc1ccc(NC(=O)COC(=O)C2(CC(=O)NC(C)(C)C)CCCC2)cc1C | inconclusive [inhibitor, single point]
CC1(C)Cc2c(C#N)c(N3CCN(C(=O)c4ccco4)CC3)nc(-c3ccco3)c2CS1 | inconclusive [inhibitor, single point]
COc1cc(CNCc2cccs2)cc(Br)c1OC | inconclusive [inhibitor, single point]
Cc1ccc(NC(=O)C(OC(=O)c2cc(C)oc2C)c2ccccc2)cc1 (centres undefined) | inconclusive [inhibitor, partial curve, poor fit]
CCc1ccc(OCC(=O)N(Cc2ccco2)Cc2ccco2)cc1 | inconclusive [inhibitor, single point]
CN(C)CCCNC(=S)NCc1ccc(Cl)cc1 | inconclusive [inhibitor, single point]
